# Laboratory results from PubChem BioAssay AID1347073 (National Center for Advancing Translational Sciences (NCATS), 2019).
# Among all 45,000 compounds or so, about 200 (0.44%) were called active. Roughly 7% stayed inconclusive and do not appear here. Calls come from the whole dose curve; as a rule, active = well fitted activation curve with a large enough effect; inconclusive = small, poorly fitted or top-dose-only effect; inactive = no such curve, though single readings can be large or run the other way. The list shows a part of the results.
# Assay: qHTS of TDP-43 Inhibitors: NCGC Sytravon Library Screen; note: 0% is about no effect; nearly all actives have a fitted effect of over 55% in size
# Conditions: yeast TDP-43 toxicity rescue, BacTiter-Glo growth, 24 h; series mostly up to 46.1 µM; growth rescue (activation): at the top concentration
# Summary of the method: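 TDP-43-expressing yeast, pregrown in raffinose, seeded at OD600 0.02 in galactose medium with compound for 24 hr at 30 deg C. Growth read by BacTiter-Glo luminescence, so rescue of toxicity appears as activation.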
row,SMILES,growth rescue (activation)
1,O=C(C1CCCC1)N1CCN(S(=O)(=O)c2ccc(F)cc2)CC1,inactive: 3.15%
2,O=C(CCN1C(=O)/C(=C\c2cccc(Br)c2)SC1=S)NCCCN1CCOCC1,inactive: -6.75%
3,CNC(=O)/C(C#N)=C\c1cc(C)n(-c2ccc(N3CCOCC3)cc2)c1C,inactive: -9.83%
4,CC(=O)Nc1ccc(S(=O)(=O)NC2=NCN(c3cccc([N+](=O)[O-])c3)CN2)cc1,inactive: 8.43%
5,COn1c(=O)c(-c2cccc(Br)c2)[n+]([O-])c2ccccc21,inactive: 11.2%
6,O=C(O)c1ccc(NC(=O)c2ccc3c(c2)C(=O)N(CC2CCCO2)C3=O)cc1 (stereo unspecified),inactive: 12.5%
7,COc1ccc(NC(=O)Cn2nc(C(=O)O)c3ccccc3c2=O)cc1S(=O)(=O)N1CCCCC1,inactive: 10.3%
8,CN(C)/C=C/C(=O)c1ccccc1OCc1cnc(Cl)s1,inactive: 11.1%
9,CNS(=O)(=O)c1ccc(NCC2COc3ccccc3O2)c([N+](=O)[O-])c1 (stereo unspecified),inactive: 20.2%
10,Cc1cc(C)c(C)c(S(=O)(=O)Nc2ccccc2C(=O)NCCCn2ccnc2)c1C,inactive: -8.2%
11,CCCCc1c(O)nc(SCC(=O)c2ccccc2)n(-c2ccccc2)c1=O,inactive: 9.64%
12,O=C1CCCC(=O)N1c1ccc(N2CCN(c3ccccc3)CC2)c([N+](=O)[O-])c1,inactive: 7.43%
13,CCOc1ccccc1NC(=O)c1ccc(-n2cncn2)nc1,inactive: -2.07%
14,O=C(NC1CCCCCC1)C(=S)N1CCCC1,inactive: 8.75%
15,COCCNC(=O)C(c1cccnc1)N(Cc1ccc(C)cc1)C(=O)Cn1nnc2ccccc21 (stereo unspecified),inactive: 6.5%
16,CCOc1ccc(NC(=O)c2ccc3c(=O)n4c(nc3c2)CCCCC4)cc1,inactive: -8.95%
17,COc1ccccc1C(=O)NCC(=O)OC(C)C(=O)NC(=O)NC1CCCCC1 (stereo unspecified),inactive: 4.64%
18,N/C(=N\OC(=O)c1cccnc1)c1ccc(Cl)cc1Cl,inactive: 13.1%
19,COc1ccc2cc(C(N)=O)c(=Nc3ccccc3)oc2c1,inactive: -4.29%
20,CC(OC(=O)c1ccc(Cl)c(S(=O)(=O)N2CCc3ccccc32)c1)C(=O)Nc1ncc(Cl)cc1Cl (stereo unspecified),inactive: 13.9%
21,O=C1CC(NC2CCN(C(=O)c3cccc(F)c3)CC2)C(=O)N1 (stereo unspecified),inactive: 15%
22,Cc1ccc(NC(=S)N2CCC(NC(=O)c3ccc(F)cc3)CC2)cc1,inactive: -1.04%

row,SMILES,growth rescue (activation)
1,CCOC(=O)C1(C)CCCN(C(=O)Cc2ccc3ccccc3c2)C1 (stereo unspecified),inactive: 9.56%
2,CC(C)=CCN1CCN(Cc2cccn2-c2nccs2)CC1CCO (stereo unspecified),inactive: -2.04%
3,C/C(=N\NC(=O)c1ccc(Cl)cc1)c1ccc(N2CCOCC2)cc1,inactive: -11.4%
4,COc1cc(CC(NC(C)=O)C(=O)NC2CCN(C(=O)c3ccc(C)cc3)CC2)cc(OC)c1 (stereo unspecified),inactive: 4.25%
5,O=S(=O)(NCCCO)c1ccc2c(c1)Cc1cc(S(=O)(=O)NCCCO)ccc1-2,inactive: -17.6%
6,Cc1ccc(S(=O)(=O)N2CCN(CC(=O)N/N=C\c3cccnc3)CC2)cc1,inactive: -11.3%
7,CCOc1nc(CC(C)C)c2c(c1C#N)CC(C)(C)OC2,inactive: 14.4%
8,CCOC(=O)NNC(=O)C1CCC(C)CC1 (stereo unspecified),inactive: -0.323%
9,CNc1ncc(C(=O)c2ccc(F)cc2)s1,inactive: 3.2%
10,CCOc1ccc(N(CC(=O)NCc2ccc(F)cc2)C(=O)CCC(=O)Nc2nccs2)cc1,inactive: -11.6%
11,CCC(CC)c1nnc(NC(=O)C2CC(=O)N(CCc3ccc(F)cc3)C2)s1 (stereo unspecified),inactive: 19.6%
12,Cn1cccc1C(=O)OCC(=O)c1c[nH]c2ccccc12,inactive: 21.2%
13,COCCN1Cc2cccc(C(=O)NC(C)CCc3ccco3)c2C1=O (stereo unspecified),inactive: -12.3%
14,Cc1cc(C)n2nc(SCCOc3ccc(F)cc3)nc2n1,inactive: 28.9%
15,Cc1ccc(C)c(NC(=O)COC(=O)c2nn(C)c(=O)c3ccccc23)c1,inactive: 8.11%
16,COCCSc1nc(N)c2c3c(sc2n1)CN(C)CC3,inactive: -19.9%
17,Nc1ncc(Br)cc1S(=O)(=O)Nc1cc(C(F)(F)F)cc(C(F)(F)F)c1,inactive: 8.46%
18,CC1CCC2(CC1)NC(=O)N(CC(=O)Nc1ccccc1-c1ccccc1)C2=O (stereo unspecified),inactive: 13.7%
19,O=C(CC(c1ccccc1)c1ccccc1O)NCc1ccccc1 (stereo unspecified),inactive: 5.94%
20,COC(=O)Cc1ccc(NC(=S)Nc2ccccn2)cc1,inactive: 11.1%
21,COc1cc2c(cc1OC)CN(S(=O)(=O)/C=C/c1ccccc1)CC2,inactive: 14.8%
22,Cc1ccc(-c2csc3nc(CSc4nnc(-c5ccc(Cl)cc5)n4C)[nH]c(=O)c23)cc1,inactive: 13.4%

row,SMILES,growth rescue (activation)
1,COc1ccc(C(=O)Nn2c(CC(C)C)nc3cc(Cl)ccc3c2=O)c(OC)c1,inactive: 10.3%
2,COCc1c(C(=O)N2CCN(Cc3c(F)cccc3Cl)CC2)oc2ccccc12,inactive: 30.3%
3,CC1CC(C)CN(c2cc3c(cc2[N+](=O)[O-])C(=O)N(c2ccccc2)C3=O)C1 (stereo unspecified),inactive: 9.02%
4,Nn1c(Cc2ccc(Br)cc2)n[nH]c1=S,inactive: 10.6%
5,COc1ccc(CCNc2ncnc3sc(C)cc23)cc1OC,inactive: 15.1%
6,C=CCC(NCc1ccccc1)c1ccc(OC)cc1 (stereo unspecified),inactive: -20.4%
7,CCOC(=O)c1sc2nc(C)[nH]c(=S)c2c1C,inactive: 23.2%
8,Cc1ccc(S(=O)(=O)/N=C(\c2ccccc2)N(C)S(=O)(=O)c2ccccc2)cc1,inactive: 18.4%
9,COC(=O)Cc1c(CSc2ccccc2)oc2ccc(O)c(CN(C)C)c12,inactive: -6%
10,CCOc1ccccc1/C=C(\C#N)C(=O)Nc1cccc(C(=O)O)c1,inactive: 14.5%
11,OC[C@H]1O[C@@H](c2nc3ccc(-c4nc(-c5cccs5)no4)cc3[nH]2)C[C@@H]1O,inactive: 8.33%
12,CCN1CCN(C(=O)/C=C/c2ccccc2[N+](=O)[O-])CC1,inactive: 4.1%
13,O=C(COC(=O)c1n[nH]c2ccccc12)Nc1ccc(Cl)cc1[N+](=O)[O-],inactive: -2.33%
14,CC1CCCCN1C(=O)c1ccc(OC2CCN(S(=O)(=O)N(C)C)CC2)cc1 (stereo unspecified),inactive: 1.03%
15,O=C(NCC(=O)N(c1ccccc1F)C(C(=O)NC1CCCC1)c1ccco1)c1ccco1 (stereo unspecified),inactive: -2.14%
16,CC(NC(=O)c1ccc(N(C)C)cc1)c1ccc(F)cc1 (stereo unspecified),inactive: 16.3%
17,COc1cccc(C(=O)Nn2cnnc2)c1,inactive: -6.4%
18,O=c1ccccn1CCOc1ccccc1Cl,inactive: 11.1%
19,O=C(O)Cc1ccc(-n2cccc2)cc1,inactive: -1.34%
20,CC(C)Oc1cccc(NC(=O)C2(C)CCCN(C)C2)c1 (stereo unspecified),inactive: 10.8%
21,CCOC(=O)C1(CCc2ccccc2)CCN(C(=O)C(C)n2cncn2)CC1 (stereo unspecified),inactive: 1.34%
22,O=C(CSCc1c(F)cccc1F)Nc1ccccc1,inactive: 29%

row,SMILES,growth rescue (activation)
1,COc1ccccc1/C=C/c1nc(C#N)c(NCc2ccccc2)o1,inactive: 24.1%
2,CC(=O)Nc1nc(CC(C)C)cc(-c2ccccc2)c1C#N,inactive: 11.6%
3,NS(=O)(=O)c1ccc(CCNC(=O)COC(=O)c2ccc([N+](=O)[O-])o2)cc1,inactive: 0.155%
4,O=C(CNC(=O)c1ccc(Br)cc1)NCC(=O)OCC(=O)c1ccccc1,inactive: -3.14%
5,COc1ccc(-c2nn(-c3ccccc3)cc2/C=C2/SC(=S)N(CCC(=O)O)C2=O)c(C)c1,inactive: -2.04%
6,CCc1ccccc1N(CC)C(=O)c1cc2c(s1)-c1ccccc1SC2,inactive: 14.4%
7,O=C(C1CC(=O)N(c2ccc(F)cc2)C1)N1CCCCC1 (stereo unspecified),inactive: 0.339%
8,CC[n+]1c(C)n(-c2ccccc2)c2ccc(NC(C)=O)cc21,inactive: -8.31%
9,CC(=O)Nc1ccc(N=c2cc([N+](=O)[O-])cc(Cl)n2O)cc1,inactive: 18%
10,CSc1nc2ccc(NC(=O)c3ccc(F)c(F)c3)cc2s1,inactive: 24.3%
11,CCNC(=O)C(=O)Nc1ccc([N+](=O)[O-])cc1,inactive: -9.75%
12,Cn1nnc(NC(=S)NC(=O)c2ccco2)n1,inactive: -0.465%
13,CN(CC(=O)Nc1cc(Cl)cc(Cl)c1)Cc1cccs1,inactive: 7.38%
14,COc1ccccc1NS(=O)(=O)c1ccc(N/N=C/c2ccccc2OCC(=O)O)c([N+](=O)[O-])c1,inactive: -7.08%
15,CCN(CC)CCOC(=O)c1ccc(NC(=O)CCCN2C(=O)/C(=C/c3cccs3)SC2=S)cc1,inactive: 11%
16,Cc1cc(NC(=O)CSc2nc3ccccc3cc2C#N)no1,inactive: 1.41%
17,CC(OC(=O)C1CC1)C(=O)Nc1cccc(S(=O)(=O)N2CCOCC2)c1 (stereo unspecified),inactive: -16.8%
18,Cc1cc(C)c(Cn2cnc3ccccc32)c(C)c1,inactive: -18.9%
19,Cc1ccc([N+](=O)[O-])cc1S(=O)(=O)NCCc1c(C)[nH]c2ccccc12,inactive: -2.43%
20,COc1ccc(NC(=O)c2ccco2)cc1NC(=O)c1ccccc1[N+](=O)[O-],inactive: -9.23%
21,Cc1ccc(S(=O)(=O)N2CCC(C(=O)Nc3nnc(C)s3)CC2)cc1,inactive: -4%
22,Cc1cnc(C(=O)N2CCCC(C(=O)c3ccc(C(C)(C)C)cc3)C2)cn1 (stereo unspecified),inactive: 9.14%

row,SMILES,growth rescue (activation)
1,Cn1c(=O)c2c(ncn2CC(=O)N/N=C/C=C/c2ccccc2)n(C)c1=O,inactive: 14.7%
2,O=C(NCCSCc1ccccc1)c1ccccc1,inactive: 28.2%
3,CN(C(=O)CSc1nc2cc(Cl)ccc2c(=O)n1Cc1ccco1)C1CCS(=O)(=O)C1 (stereo unspecified),inactive: -3.89%
4,COc1ccccc1S(=O)(=O)N1CCN(S(=O)(=O)c2ccccc2C#N)CC1,inactive: -1.76%
5,Cc1c(NC(=O)/C=C/c2cn(-c3ccccc3)nc2-c2ccccc2)c(=O)n(-c2ccccc2)n1C,inactive: 10.5%
6,COCCNC(=O)C1CCCN(C(=O)c2ccc(SC(F)(F)F)cc2)CC1 (stereo unspecified),inactive: -8.4%
7,COc1ccccc1C1/C(=C(/O)c2ccccc2)C(=O)C(=O)N1CC(C)O (stereo unspecified),inactive: 19.6%
8,CC(=O)c1cccc(-c2ccnc3c2CC(C(=O)NCc2ccc(N4CCN(C)CC4)cc2)O3)c1 (stereo unspecified),inactive: 5.81%
9,CCCCOC(=O)n1c(=O)oc2ccc(S(=O)(=O)N3CCCCC3)cc21,inactive: 17.8%
10,COc1cccc(NC(=O)c2ccc(-c3ccc([N+](=O)[O-])cc3)o2)c1,inactive: -15.3%
11,O=C(O)/C=C\C(=O)NNC(=O)c1cc(-c2ccccc2)n[nH]1,inactive: 14.8%
12,CC(=O)Nc1ccc(CN2CCN(CCC(C)C)C(CCO)C2)cc1 (stereo unspecified),inactive: -13.4%
13,CC1(C)CC(=O)C=C(NNC(=O)OC(C)(C)C)C1,inactive: 10.2%
14,CN(C)Cc1nc2ccccc2c(=O)n1Cc1nc(C(C)(C)C)cs1,inactive: 21.4%
15,Cc1ccc(NC(=O)c2ccc(OCc3c(C)noc3C)cc2)cc1C,inactive: -1.92%
16,CCc1ccc(C(=O)Cn2ccsc2=N)cc1,inactive: -28%
17,Cc1ccc(CSc2nnc(SCC(=O)N/N=C/C=C/c3ccccc3[N+](=O)[O-])s2)cc1,inactive: 1.32%
18,Cc1cc(C)c(C#N)c(N2CCC(C(N)=O)CC2)n1,inactive: -4.3%
